From PubChem BioAssay AID1240 (Sanford-Burnham Center for Chemical Genomics, 2008)
About 800 (1.6%) of roughly 50,000 compounds showed an effect of 50% or more. The list shows a part of the results.

biological target: Bcl-2-like protein 10 (Homo sapiens) (UniProt Q9HD36); experiment: Phenotype converters, Bcl-B/TR3 peptide binding displacement, primary biochemical FP (AID 1240); conditions: GST-Bcl-B / FITC-TR3 peptide fluorescence polarization; stronger effect = higher value; compound at 3.75 mg/L;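 also: 0% = Bcl-B with tracer peptide and DMSO and 100% = tracer peptide lacking Bcl-B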
Chain of UniProt Q9HD36 (Q9HD36 whole entry, looked up): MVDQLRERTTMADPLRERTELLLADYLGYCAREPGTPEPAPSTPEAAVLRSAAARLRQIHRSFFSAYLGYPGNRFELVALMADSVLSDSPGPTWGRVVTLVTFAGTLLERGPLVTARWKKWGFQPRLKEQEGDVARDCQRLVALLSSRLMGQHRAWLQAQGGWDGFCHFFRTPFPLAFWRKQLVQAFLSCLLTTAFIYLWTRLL

First: O=C(COc1ccccc1[N+](=O)[O-])Nc1ccc2oc(-c3cccnc3)nc2c1
Second: Cc1ccccc1OCC(=O)Nc1cccc(NC(=O)c2cccc(Cl)c2)c1
The displacement of the first is higher: 3.8% for the first, -6.5% for the second.

Going from `CN1C(=O)/C(=C\c2ccc(OCc3ccccc3Cl)cc2)SC1=S` to `COc1ccc(/C=C2/C(=O)ON=C2c2ccccc2)cc1`, the displacement falls from 15.9% to 13.6%.

Compared with `Cc1cccc(C(=O)Nc2cc(-c3cccc(C)c3)[nH]n2)c1`, `Cc1cc(C)c2oc(-c3cccc(NC(=O)c4cccc5ccccc45)c3)nc2c1` is lower in displacement: 8.8% for the first, -10.7% for the second.

Going from `Cc1ccc2[nH]c(C)c(CN3CCN(C)CC3)c(=O)c2c1` to `Cc1ccc(C)c(OCCN2CCCC2)c1`, the displacement falls from 16.8% to 6.9%.

First: O=C1CC(NCCc2ccc(Cl)cc2)C(=O)N1c1ccc(Cl)cc1 (centres undefined)
Second: Cc1cccc(N2C(=O)CC(N3CCN(c4cccc(Cl)c4)CC3)C2=O)c1 (centres undefined)
The displacement of the first is lower: -18.2% for the first, 6.8% for the second.

Going from `O=c1oc2ccc(Cl)cc2cc1-c1ccccc1` to `COc1cccc2cc(-c3nc(-c4ccc(C)c(C)c4)cs3)c(=O)oc12`, the displacement rises from 8% to 80.5%.

First: O=C(Nc1ccc(Cl)c(C(F)(F)F)c1)c1ccc(I)cc1
Second: Cc1ccc(C(=O)Nc2nc(-c3ccc(F)cc3)cs2)cc1
The displacement of the first is higher: 5.4% for the first, -5.9% for the second.

Going from `CC(Cc1ccccc1)NC(=S)Nc1ccccc1` (centres undefined) to `CCOC(=O)C1(P(=O)(c2ccccc2)c2ccccc2)CC1`, the displacement rises from -10.2% to 19.1%.

Compared with `CCOc1ccc(C(=O)c2cccc([N+](=O)[O-])c2)cc1`, `C/C(=N/NC(=O)COc1ccc(C)cc1)c1cccc([N+](=O)[O-])c1` is lower in displacement: 11.7% for the first, 10% for the second.

Compared with `O=C(Nn1cnnc1)c1ccccc1Cl`, `Cc1nccn1S(=O)(=O)c1ccc2ccccc2c1` is lower in displacement: -1.5% for the first, -2.8% for the second.

Going from `O=C(COC(=O)C(O)c1ccccc1)c1ccc2c(c1)OCCO2` (centres undefined) to `COc1ccccc1CNC(=O)C(OC)c1ccccc1` (centres undefined), the displacement rises from -8.1% to -5.7%.

Compared with `CCOc1ccc(N(CC(=O)Nc2ccc(F)cc2)S(=O)(=O)c2ccc(SC)cc2)cc1`, `CCOc1ccc(NC(=O)/C(=C\c2cccnc2)NC(=O)c2ccc(C)cc2)cc1` is lower in displacement: 10% for the first, -4.8% for the second.

Going from `COc1cc(/C=C/C(=O)c2c(-c3ccccc3)c3cc(Br)ccc3[nH]c2=O)cc(OC)c1OC` to `COc1cc2c(cc1NC(=O)c1cccc([N+](=O)[O-])c1C)oc1ccccc12`, the displacement falls from 10.5% to 1.2%.

First: COc1ccccc1NCC(=O)N/N=C/c1ccccc1OCc1ccc(Br)cc1
Second: COc1ccccc1NC(=O)C1=C(C)NC(=O)NC1c1ccccc1Br (centres undefined)
The displacement of the first is lower: 1.5% for the first, 10.1% for the second.

First: CC1=C(C#N)c2nc(N)c(C#N)c(C)c2/C1=C/c1ccc(-c2ccc([N+](=O)[O-])cc2C)o1
Second: Cc1ccc(CCC(=O)Nc2ccc([N+](=O)[O-])cc2)o1
The displacement of the first is lower: -5.8% for the first, 12.8% for the second.

First: O=C(Oc1ccccc1C(=S)N1CCOCC1)c1cccc2ccccc12
Second: COC(=O)c1ccccc1Sc1c(-c2ccccc2)nc2ccccn12
The displacement of the first is higher: 9.2% for the first, 8.1% for the second.

Going from `CC(=O)Nc1ccc(-c2nc3ccc(C)cc3s2)cc1` to `COc1ccc(NC(=O)Nc2nnc(-c3ccc(OC)c(OC)c3)s2)cc1`, the displacement rises from -3.9% to 22.6%.

Going from `C=CCN1Cc2c(sc(C)c2C)N(C(=O)c2ccccc2)C1` to `COc1ccccc1N1CCN(C(=O)c2ccncc2)CC1`, the displacement falls from 1.9% to -0.6%.

Going from `Cc1ccc(C)c(NC(=O)/C=C\C(=O)O)c1` to `CC1=C(C(=O)Nc2ccccc2C)C(c2ccc(C)cc2)NC(=O)N1` (centres undefined), the displacement falls from 18.4% to -5.1%.

Compared with `O=C(NCCO)C(=O)NCc1ccccc1`, `O=C1CCC(C(=O)Nc2ccccc2)N1` (centres undefined) is lower in displacement: 15% for the first, 10% for the second.

Compared with `CN(C)c1ccc(C2/C(=C(\O)c3ccccc3)C(=O)C(=O)N2CCCCCC(=O)O)cc1` (centres undefined), `COC(=O)C1=C(C)N(C)C(C)=C(C(=O)OC)C1c1ccc(OCc2ccccc2)c(OC)c1` is higher in displacement: -3.9% for the first, 0.2% for the second.

Compared with `CC1(C)CC2CC(C)(CN2S(=O)(=O)c2ccc(C(=O)Nc3ccc(Cl)c(S(=O)(=O)N4CCOCC4)c3)cc2)C1` (centres undefined), `COc1ccc(C(=O)N2CCN(S(=O)(=O)c3ccc(Cl)cc3)CC2)cc1OC` is lower in displacement: 12.3% for the first, -9.4% for the second.

Compared with `Cc1cc(C)c(NC(=O)C(C)Oc2cccc(Cl)c2)c(C)c1` (centres undefined), `CC(=O)Nc1ccc(S(=O)(=O)NNC(=O)c2cccc(Cl)c2)cc1` is lower in displacement: -5% for the first, -8.5% for the second.

Compared with `CCCC1=NN(C(=O)Cc2ccc([N+](=O)[O-])cc2)C(O)(C(F)(F)F)C1` (centres undefined), `CCCC(C)NS(=O)(=O)c1ccc(NC(C)=O)cc1` (centres undefined) is higher in displacement: 1.4% for the first, 12.7% for the second.

First: O=C1C(Nc2ccccc2)=CC(c2ccccc2[N+](=O)[O-])N1c1ccccc1 (centres undefined)
Second: Cc1ccccc1C(=O)Nc1cccc(Oc2ccc3c(c2)C(=O)N(c2ccccc2)C3=O)c1
The displacement of the first is lower: -2.5% for the first, 8.7% for the second.

Going from `O=C(Nc1ccccc1)c1ccccc1N=Cc1ccc(C=Nc2ccccc2C(=O)Nc2ccccc2)cc1` to `CCN1C(=O)/C(=C/c2nc3ccccc3c(=O)n2-c2cccc(C)c2)c2ccccc21`, the displacement falls from 121% to -4.1%.

Compared with `O=C(COc1ccc2c3c(c(=O)oc2c1)CCCC3)c1ccc(F)cc1`, `O=C1NC(=O)N(c2cccc(F)c2)C(=O)/C1=C/c1ccc(N2CCOCC2)o1` is higher in displacement: -1.3% for the first, 17.7% for the second.

First: CN(C)NC(=O)C1CCC(C)(C(=O)O)C1(C)C (centres undefined)
Second: CCN(CC)S(=O)(=O)c1cc(C(=O)Nc2cccc(C(=O)O)c2)ccc1C
The displacement of the first is higher: 1.4% for the first, -3.5% for the second.

Going from `CCN(CC)Cc1ccc(OC(C)C)c(CN(CC)CC)c1` to `COc1ccc(CNc2cccc(C)c2)cc1Br`, the displacement rises from -6.6% to 4.3%.

Compared with `CCc1nnc(N/N=C/c2c(Cl)cccc2Cl)n1N`, `Cc1cccc(/C(N)=N/OC(=O)c2ccccc2I)c1` is lower in displacement: 12.4% for the first, 1.1% for the second.

Going from `CC(=O)N(C(C)=O)c1cccc2c(N(C(C)=O)C(C)=O)cccc12` to `CCOC(=O)c1c(NC(=O)c2ccc(Cl)cc2Cl)sc(C(=O)Nc2ccccc2F)c1C`, the displacement falls from 1% to -3.9%.

Compared with `COc1ccc(S(=O)(=O)N(CC(=O)NCCSCc2ccc(Cl)cc2)c2cc(C)cc(C)c2)cc1OC`, `Cc1ccc(-c2nc3ccccc3o2)cc1NC(=S)NC(=O)c1ccco1` is lower in displacement: 11.3% for the first, 8.7% for the second.

First: O=S(=O)(/N=C/c1ccccc1O)c1cccs1
Second: O=C1c2cccc3cccc(c23)C(=O)N1c1cccnc1
The displacement of the first is higher: 19.9% for the first, 0.6% for the second.

Compared with `CN1C(=O)C2(c3ccccc31)N1CC3(C)CN2CC(C)(C1)C3=O` (centres undefined), `CC(C)OC(=O)c1c(NC(=O)c2cccnc2)sc2c1CCCCC2` is higher in displacement: -12.9% for the first, -1.2% for the second.

`CC(C)OC(=O)c1c(-c2ccc(Cl)cc2Cl)csc1NC(=O)CCC(=O)O` was tested, and the displacement was -1.7%.
